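Interpolation was linear, between the two tested concentrations surrounding the appropriate level; five concentrations were tested over 48 hours in 96-well plates. The concentration for 50% growth inhibition is given as GI50. The concentration for full growth arrest is given as TGI.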
Tested on: NCI-H322M lung
Test: NCI-60 cell line screen, 48 h

Structure (SMILES)	TGI	GI50
O=S(=O)(O)C(F)(F)C(F)(F)C(F)(F)C(F)(F)F	> 100 µM	–
C/C(=N\NC(N)=S)c1ccc(/C(C)=N/NC(N)=S)cc1	> 100 µM	–
CCOC(=O)CCc1c(C(=O)OCC)[nH]c(/C=C2/NC(=O)C(C)=C2CC)c1C	> 100 µM	–
COc1ccc(NS(=O)CCc2ccccc2)cc1 (stereo unspecified)	> 100 µM	–
OCCNc1nc(NCCO)nc(Nc2ccc(C3=NN(c4cc(Cl)cc(Cl)c4)C(c4ccc(Cl)cc4)C3)cc2)n1 (stereo unspecified)	6.36 µM	2.46 µM
Cc1ccc(-c2c(C#N)c(-c3ccc(N(C)C)cc3)c(C#N)c(=O)n2NS(=O)(=O)c2ccccc2)cc1	> 100 µM	–
CCCOc1ccc(/C=C/c2cc(OC)c(OC)c(OC)c2)cc1	> 100 µM	–
CN(CCO)CC(=O)CC(O)(C(F)(F)F)C(F)(F)F	> 100 µM	–
CCc1ccccc1NC(=O)CCc1nc(=S)[nH][nH]1	> 100 µM	–
CC(=O)Nc1c(C)cc(OCC(=O)O)cc1C	> 100 µM	–
S=C(Nc1ccccc1)c1ccccn1	> 100 µM	> 100 µM
CCCCCCC(N)(CCCCCC)C(=O)Nn1c(C)ccc1C	> 100 µM	–
OCCN(CO)CN(CN(CO)CCO)c1nc(N(CN(CO)CCO)CN(CO)CCO)nc(N(CN(CO)CCO)CN(CO)CCO)n1	0.196 µg/mL	1.79 ng/mL
CN1CC=C(OP(=O)(NCc2ccccc2)N(CCCl)CCCl)CC1 (stereo unspecified)	> 100 µM	–
CSC(=S)N(C)c1nc(=[N+](C)C)ss1	> 100 µM	–
CCCCCCN1C(=O)/C(=c2\sc3n(c2=O)C2C(NN=3)N(CC)C(=O)N2CC)c2ccccc21 (stereo unspecified)	> 50 µM	1.6 µM
COC(=O)Nc1ccc2ccc3c(NC(=O)OC)ccc4ccc1c2c43 (tested in a mixture with another compound)	> 50 µM	11.8 µM
Cc1ccc2c(ccc3c[n+]4ccccc4c(C)c32)c1	25.6 µM	–
CCCCCCn1c(-c2ccc(C(=O)O/N=C(\N)c3ccc(OC)cc3)cc2)nc(-c2ccccc2)c1-c1ccccc1	> 100 µM	3.93 µM
CSc1nc(C)cc(Nc2ccc(O)c(CN3CCCCC3)c2)n1	> 100 µM	–
CCCCCCN(C(=O)Oc1ccccc1)C(C#N)c1ccccc1 (stereo unspecified)	> 100 µM	–
COc1ccccc1NC(=O)CC(=O)n1nc(C)c(N=Nc2ccccc2F)c1C	> 100 µM	–
CCN(CC)CCCCC1CCN(CC(=O)N2c3ccccc3NC(=O)c3ccccc32)CC1	> 100 µM	–
c1ccc(C2=NN(c3ccccc3)C3(S2)SC(c2ccccc2)(c2ccccc2)c2ccccc23)cc1 (stereo unspecified)	> 100 µM	–

Structure (SMILES)	TGI	GI50
Cc1c(C(=O)/C=C/c2ccc(O)cc2)nnn1-c1ccnc2c(C(F)(F)F)cccc12	89.3 µM	8.01 µM
CCCCCC(=O)N1c2ccccc2NC2=C(C(=O)CC(c3ccc(OC)c(OC)c3)C2)C1c1ccc(C(F)(F)F)cc1 (stereo unspecified)	> 100 µM	> 100 µM
O=C(O)C(/C=C/c1ccco1)=N\Nc1nc(-c2ccc(Cl)cc2)cs1	> 50 µM	20 µM
CC(=O)Nc1ccc(-c2nnc(SCC(=O)Nc3ccccc3Cl)o2)cc1	> 100 µM	–
CC(=O)NNC=N/C(C#N)=C(\N)C#N	> 100 µM	–
CC(=O)/C=C1/c2ccccc2N(C(C)=O)C1O (stereo unspecified)	> 100 µM	–
O=C1N=C2c3c(sc4c3CCCC4)N=CN2C1N=Nc1ccc(Cl)cc1 (stereo unspecified)	> 100 µM	33 µM
COc1ccc(NC2=C(Sc3nc(C)cc(C)n3)C(=O)N(Cc3ccccc3)C2=O)cc1Cl	> 160 µM	> 160 µM
COc1ncnc2c(NC3OC(CO)C(O)C3O)ncnc12 (stereo unspecified)	0.824 µM	–
O=[N+]([O-])c1ccc(Cc2nc3ccccc3s2)cc1	> 100 µM	–
CC(C)=CC(=O)Cc1nc2ccccc2[nH]c1=O	> 100 µM	–
C/C(=N\NC(N)=S)c1ccc2c(c1)OCO2	> 100 µM	–
CC(C)=CCC/C(C)=C/Cc1cc(/C=C/c2cc(O)c(CC=C(C)C)c(O)c2)cc(O)c1O	23.6 µM	–
COc1ccc(NC(=O)C2=C(SC)C(C#N)C(=O)N=C2N)cc1 (stereo unspecified)	> 100 µM	–
CC[C@@]1(O)C(=O)NCc2c1cc1n(c2=O)Cc2cc3cc4c(cc3nc2-1)OCO4	> 84.8 µM	3.19 µM
CCCCCCCCCCCCCCCC(=O)NC1CCc2cc(O)c(O)c(O)c2-c2ccc(SC)c(=O)cc21 (stereo unspecified)	28.3 µM	–
CC(=O)OCC(OC(C)=O)C(OC(C)=O)C(/C=N/N(C(C)=O)S(=O)(=O)c1ccc(/C=C2\NC(=O)NC2=O)cc1)OC(C)=O (stereo unspecified)	> 100 µM	–
N#Cc1c(-c2ccccc2)c(C#N)c(=O)n(NS(=O)(=O)c2ccccc2)c1O	> 100 µM	–
CCOC(=O)/C(C#N)=C(O)/C(=C/c1ccccc1Cl)NC(=O)c1ccccc1	> 100 µM	–
Clc1cc(Cl)cc(N2N=C(c3cccc(Nc4ccncc4)c3)CC2c2ccccc2)c1 (stereo unspecified)	3.4 µM	1.68 µM
O=c1c2cc(I)ccc2nc(-c2cccs2)n1Nc1ccccc1	86.4 µM	–
O=C(CCN(CCO)CCO)Nc1ccc2c(c1)C(=O)c1ccc(NC(=O)CCN(CCO)CCO)cc1C2=O	> 100 µM	–
Cc1[nH]c2ncn(/N=C/c3ccccc3)c(=N)c2c1Cc1ccccc1	> 100 µM	–
CCCCCCCCCC(=O)OCC1(CO)C/C(=C/CC(C(C)C)C(C)C)C(=O)O1 (stereo unspecified)	> 100 µM	–

Source: PubChem BioAssay (NCI)
